Reference: the supplement of paper PMC11417369
± gives the standard deviation of the averaged measurements. The list shows a part of the results.

tested on: PfAP2-EXP AP2 domain (GST-tagged); assay: gcPBM binding intensity (ln(normalized median fluorescence intensity)); higher = stronger DNA binding
Method in brief: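 Binding of GST-tagged P. falciparum DNA-binding domains, expressed in E. coli and used at about 25 μg on average, was carried out for 1 h in 1× PBS containing 1% milk, 0.2 mg/ml BSA, 0.5% salmon testes DNA and 0.03% Triton X-100. The target was an Agilent 4 × 180k array of primer-extended double-stranded 36-bp intergenic genomic probes plus negative controls, read with Alexa488 anti-GST antibody at 488 nm. Binding intensity is the highest Masliner-normalised natural-log median intensity across replicate spots of either probe orientation.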

Row | Sequence | gcPBM binding intensity (ln)
1 | AGAAAAAAAAATTATACATGCATATACGTTTATTTT [TGCATGCA_site529] | 8.56 ± 0.33
2 | AAACAAATAAAATTTATTAAAAAGGTCATATTATTA [CACACA_negctrl_site85] | 8.19 ± 0.32
3 | TAAATATATTTCATGACATGCAACTTGTTTTTTTGT [TGCATGCA_site456] | 8.79 ± 0.42
4 | TCAACACACGTGGAATGTACTTTAGTATAAGAATTC [XGTACX_site7842] | 8.52 ± 0.49
5 | ATAAAAAAAAGACACACACACATATATATATATATA [CACACA_site3073] | 10 ± 0.33
6 | TCTTTTACAAAAGCTATAACATTCACCACATTATAA [GTGCAC_negctrl_site133] | 8.36 ± 0.38
7 | TATATATATATATAAACACACATAAATATAAATATA [CACACA_site1121] | 10 ± 0.37
8 | AAAAAAAAAATATACACACACATATATATATATATA [CACACA_site3404] | 10.1 ± 0.51
9 | ATAATATATACGTGTGTGCACATGACAAAAGCATAT | 9.23 ± 0.27
10 | GTTAATGTGGTTACTTGTACATATTAACGTCTTTTT [XGTACX_site2617] | 8.65 ± 0.4
11 | ATATATATATTTTATGCATGTTCATTTTCTATATTT [TGCATGCA_site442] | 9.56 ± 0.16
12 | AATAGAACTATTACACGTACAGAACATGAATTAGTT [XGTACX_site7518] | 8.48 ± 0.31
13 | TGTTATATATGTAATTGTACACTTATACAAAATTAT [XGTACX_site6350] | 8.52 ± 0.22
14 | TTTTTTAATTAGTACAAACACACATATACAGACAAA [CACACA_site2564] | 8.99 ± 0.46
15 | AAAAAAATTAGACACACACACACATATAAATATGTA [CACACA_site6618] | 8.41 ± 0.57
16 | ATTTAGAATGCGTATACACACATATATAGATTTGCT [CACACA_site626] | 8.56 ± 0.37
17 | ATTTAAAAATAAAGAACACACATATGTAAAATATAT [CACACA_site3754] | 8.68 ± 0.59
18 | CAAAATATAACATCATCACACACATATACTTTATAT [CACACA_site8292] | 8.62 ± 0.21
19 | TATTTAAGAGTATGAACACACATCATACACATATAA [CACACA_site3617] | 8.47 ± 0.38

Row | Sequence | gcPBM binding intensity (ln)
20 | TTATTAATATATAAATGTACATATACAATACATAAA [XGTACX_site5571] | 8.45 ± 0.34
21 | TATGTTTGTGTATATATTTATTTTTATGTAATTATA [GTGCAC_negctrl_site219] | 8.77 ± 0.27
22 | TTATATTATATATATAGTACACATGTAATATTTCAA [XGTACX_site1791] | 8.46 ± 0.27
23 | ATAAATTAAAGACACACACACATCTGGATACCCCTA [CACACA_site7546] | 8.85 ± 0.53
24 | TACATGCATTTCTCATGTACATAATTTTCCCATATT [XGTACX_site5158] | 8.81 ± 0.4
25 | ATCTATATAATATATACACACAAATATACAAAAAAA [CACACA_site1013] | 8.64 ± 0.56
26 | TTTTATACATAAATGTGTACGTATATATAATGAATT [XGTACX_site2762] | 8.59 ± 0.32
27 | TAAATATGCTCACAGATGCACTAACACATTTTTATA [GTGCAC_site9997] | 8.39 ± 0.16
28 | TATTGTAGAGGCAAAAGTACACATTTAATAATTTCC [XGTACX_site1151] | 8.38 ± 0.28
29 | AAAATTAGGTATATATGTACATATATAAATATATAT [XGTACX_site3555] | 8.7 ± 0.35
30 | TCCTTATATGGGCACACACACACAATAAAATGAAAA [CACACA_site1030] | 8.89 ± 0.53
31 | GTTTATATTAAACAAACACACACATATATATATATA [CACACA_site8749] | 10.2 ± 0.26
32 | TATGCTACAAGGAGAACACACAATTGCCACTTTTGG [CACACA_site2166] | 8.59 ± 0.53
33 | AACCATTATTTCTCTACACACATTTATGTCATTTAC [CACACA_site1499] | 8.86 ± 0.56
34 | TATATAATGGTAAAAACACACAAATATGAAGATGTT [CACACA_site722] | 8.69 ± 0.39
35 | CGTGTGTCCCCCTTAATCATCCAATCGTTCATTTTG [CACACA_negctrl_site1008] | 8.95 ± 0.26
36 | AAATATAAAAGTATATGTACATATATATATATATAT [XGTACX_site7446] | 10.1 ± 0.3
37 | CATATTCCCCCCCACACACACACACCCATACATACC [CACACA_site2303] | 11.1 ± 0.18
38 | AATAAATAGATATATACACACATATATCTATAATAT [CACACA_site6557] | 8.3 ± 0.36

Row | Sequence | gcPBM binding intensity (ln)
39 | TCTTCATTTTTATGTGCATGTAAAATTTTTTTTTTT [TGCATGCA_site963] | 9.26 ± 0.57
40 | GACAATAAAAAGAAAAGTACATATATAAATTAACCA [XGTACX_site7858] | 8.63 ± 0.44
41 | AGAGGATCATAGTTATGTACACATATTTAACATAAA [XGTACX_site7232] | 8.4 ± 0.32
42 | TTTTTTTCTAATTATGCACACATATCAAAATATTCA [CACACA_site8886] | 8.83 ± 0.028
43 | ATATTTATTATATAATGTACAAAAAAAAAAAAAAAA [XGTACX_site629] | 8.14 ± 0.57
44 | TTACTTAAATATAAGTGTCCTCAAAAAAAAAAAAAA [XGTACX_site460] | 8.22 ± 0.5
45 | ATTTTTTATATTAATTGTACATTGTATATATATATA [XGTACX_site8702] | 9.9 ± 0.2
46 | ATGTATGTTTTTTTTTTATTGTTCAAAAAGTTGAAG [CACACA_negctrl_site1276] | 8.7 ± 0.42
47 | AATATAAGTTTATTAGTGCACAGATAAATATATATT [GTGCAC_site9784] | 8.95 ± 0.11
48 | TTTTTATAAAAATTATTAAAAAAATTATTTATAGCT [CACACA_negctrl_site265] | 7.9 ± 0.41
49 | TTTTTTTTCAATCTCTATATATTAAGGTTTATATTT [XGTACX_negctrl_site397] | 8.46 ± 0.44
50 | AAATATATTATTATCTTATCAATTAAAAGAATAAAC [CACACA_negctrl_site779] | 8.39 ± 0.33
51 | TAGCGCATAAAAAAAAAAAAATATATACTAATAAAT [GTGCAC_negctrl_site276] | 8.21 ± 0.61
52 | ACAACACTATATTACACATGCATTAAGAGAGTGAAC [TGCATGCA_site124] | 9.01 ± 0.47
53 | ACATTAAAATATGATTGTACATTTTATTATATTATA [XGTACX_site912] | 8.37 ± 0.24
54 | ATATAATTATTGATATGTACATATTTGTTCTAGTTT [XGTACX_site3012] | 8.82 ± 0.47
55 | ATTCAAATATTAAAAAGTACAAAAAAAAAACAAAAA [XGTACX_site1174] | 8.72 ± 0.45
56 | CTATCATATTTATGCACACAAAAATAATTAATTCGT [CACACA_site2614] | 8.59 ± 0.11
